{"source": "patent EP2791141B1", "about": "“Tofacitinib mono-tartrate salt” (ratiopharm GmbH, priority 2011, dated 2013)", "key": {"physchem": {"assay": "physchem", "settings": "thermodynamic from solid"}, "[1]": {"settings": "for solubility pH 1.2: 0.1 N HCl (pH 1.2); for solubility pH 1.2 / solubility pH 4.5 / solubility pH 6.8: stirred 1 h at room temperature, filtered, HPLC-UV 290 nm, quantified as Tofacitinib; for solubility pH 4.5: 20 mM sodium acetate (pH 4.5); for solubility pH 6.8: 50 mM potassium dihydrogen phosphate (pH 6.8)"}}, "note": "Where “and” joins values, the source holds several entries; their conditions need not be identical. Equal values may be shown once. Where a name gives a salt, the structure may show the parent alone. Read-outs that look alike come from different tables or passages of the source.", "data": [{"smiles": "C[C@@H]1CCN(C(=O)CC#N)C[C@@H]1N(C)c1ncnc2[nH]ccc12", "note": "[TOF-malate, Tofacitinib mono-malate]", "values": [{"measurement": "solubility at 1 h", "setting": "physchem; 0.1 n hcl, pH 1.2, simulated gastric fluid, solubility pH 1.2, 0.1 N HCl (pH 1.2), stirred 1 h at room temperature, filtered, HPLC-UV 290 nm, quantified as Tofacitinib", "value": 361, "unit": "mg/mL"}, {"measurement": "solubility at 1 h", "setting": "physchem; 20 mm sodium acetate, pH 4.5, aqueous buffer, solubility pH 4.5, 20 mM sodium acetate (pH 4.5), stirred 1 h at room temperature, filtered, HPLC-UV 290 nm, quantified as Tofacitinib", "value": 364, "unit": "mg/mL"}, {"measurement": "solubility at 1 h", "setting": "physchem; 50 mm potassium dihydrogen phosphate, pH 6.8, aqueous buffer, solubility pH 6.8, 50 mM potassium dihydrogen phosphate (pH 6.8), stirred 1 h at room temperature, filtered, HPLC-UV 290 nm, quantified as Tofacitinib", "value": 377, "unit": "mg/mL"}]}, {"smiles": "C[C@@H]1CCN(C(=O)CC#N)C[C@@H]1N(C)c1ncnc2[nH]ccc12", "note": "[TOF-citrate, Tofacitinib citrate, reference compound]", "values": [{"measurement": "solubility pH 1.2", "setting": "[1]", "value": "29,4 mg/ml and 29,7 mg/ml"}]}, {"smiles": "C[C@@H]1CCN(C(=O)CC#N)C[C@@H]1N(C)c1ncnc2[nH]ccc12", "note": "[TOF base, 3-{(3R,4R)-4-methyl-3-[methyl-(7H-pyrrolo[2,3-d]pyrimidin-4-yl)-amino]-piperidin-1-yl} 3-oxo-propionitrile, reference compound]", "values": [{"measurement": "solubility at 1 h", "setting": "physchem; 0.1 N HCl, pH 1.2, simulated gastric fluid, solubility pH 1.2, 0.1 N HCl (pH 1.2), stirred 1 h at room temperature, filtered, HPLC-UV 290 nm, quantified as Tofacitinib", "value": 36.7, "unit": "mg/mL"}, {"measurement": "solubility pH 4.5", "setting": "[1]", "value": "6,9 mg/ml"}, {"measurement": "solubility pH 6.8", "setting": "[1]", "value": "2,1 mg/ml"}]}, {"smiles": "C[C@@H]1CCN(C(=O)CC#N)C[C@@H]1N(C)c1ncnc2[nH]ccc12", "note": "[TOT-oxalate, Tofacitinib mono-oxalate]", "values": [{"measurement": "solubility pH 4.5", "setting": "[1]; 60 min", "value": 329, "unit": "mg/ml"}, {"measurement": "solubility pH 6.8", "setting": "[1]; 60 min", "value": 350, "unit": "mg/ml"}, {"measurement": "solubility pH 1.2", "setting": "[1]; 60 min", "value": 375, "unit": "mg/ml"}]}, {"smiles": "C[C@@H]1CCN(C(=O)CC#N)C[C@@H]1N(C)c1ncnc2[nH]ccc12", "note": "[TOF-tartrate, Tofacitinib mono-tartrate]", "values": [{"measurement": "solubility at 1 h", "setting": "physchem; 0.1 n hcl, pH 1.2, simulated gastric fluid", "value": 381, "unit": "mg/mL"}, {"measurement": "solubility at 1 h", "setting": "physchem; 20 mm sodium acetate, pH 4.5, aqueous buffer", "value": 324, "unit": "mg/mL"}, {"measurement": "solubility at 1 h", "setting": "physchem; 50 mm potassium dihydrogen phosphate, pH 6.8, aqueous buffer", "value": 353, "unit": "mg/mL"}, {"measurement": "appearance of the mixture in the first solubility experiment", "setting": "[1]; 250 mg salt in 2.5 ml solvent (pH 1.2, 4.5, 6.8), clear solution means saturation not yet achieved", "value": "clear solutions"}]}]}
